In the supplement of paper PMC7826260:
Some of the results follow. One pool of 16,384 single-stranded DNAs met each Rep nickase domain in vitro (3 µM enzyme, 1 h, 37 °C); shown is the middle of each 90-letter strand. Values are log2 of uncut reads against the no-enzyme pool; more negative means more cut, near 0 not cut, and no call is made. Because reads are shares of a total, they shift together; values above 0 arise when much of the pool is cut.

Assays:
Assay in all cases: uncleaved DNA left, log2 of reads against the no-enzyme library (log2 ratio); higher = less cleavage (more negative = more Rep cleavage of the k-mer); sequences stand for … in CTCGTCCG…ACCGGAGA
[1] = tested on: T1, Rep nickase domain of Muscovy duck circovirus
T1 sequence (Rep 1-111, printed without the tag): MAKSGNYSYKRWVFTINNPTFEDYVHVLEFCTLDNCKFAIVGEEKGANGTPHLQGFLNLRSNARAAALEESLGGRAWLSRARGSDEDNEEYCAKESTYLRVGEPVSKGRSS
Experimental: (§1)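 A pool of 90-nt single-stranded DNAs with seven random bases just before the constant AC of the nick site (name = the seven bases) was cut by 3 µM recombinant His6-SUMO-tagged Rep nickase domain (300 nM DNA, 50 mM HEPES pH 8.0, 50 mM NaCl, 1 mM MnCl2, 1 h, 37 °C, three replicates). Uncut DNA was amplified and sequenced.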

[2] = tested on: T2, Rep nickase domain of banana bunchy top virus
T2 sequence (Rep 1-94, printed without the tag): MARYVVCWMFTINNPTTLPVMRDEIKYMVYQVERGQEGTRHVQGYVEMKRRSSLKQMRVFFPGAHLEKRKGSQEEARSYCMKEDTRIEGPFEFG
Experimental: as §1

[3] = tested on: T3, Rep nickase domain of cabbage leaf curl virus
T3 sequence (Rep 1-116, printed without the tag): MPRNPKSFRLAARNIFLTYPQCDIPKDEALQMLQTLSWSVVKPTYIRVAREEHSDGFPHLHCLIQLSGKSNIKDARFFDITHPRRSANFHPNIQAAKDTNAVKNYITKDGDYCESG
Experimental: as §1

[4] = tested on: T4, Rep nickase domain of chickpea chlorotic dwarf virus
T4 sequence (Rep 1-124, printed without the tag): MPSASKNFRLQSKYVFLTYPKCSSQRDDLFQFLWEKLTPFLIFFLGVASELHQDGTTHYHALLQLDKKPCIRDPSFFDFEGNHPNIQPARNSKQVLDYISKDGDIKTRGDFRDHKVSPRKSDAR
Experimental: as §1

[5] = tested on: T5, Rep nickase domain of faba bean necrotic yellows virus
T5 sequence (Rep 1-98, printed without the tag): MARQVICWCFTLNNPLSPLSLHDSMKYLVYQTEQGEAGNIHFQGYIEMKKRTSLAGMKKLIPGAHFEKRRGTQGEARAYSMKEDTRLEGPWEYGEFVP
Experimental: as §1

[6] = tested on: T6, Rep nickase domain of maize striate mosaic virus
T6 sequence (Rep 1-117, printed without the tag): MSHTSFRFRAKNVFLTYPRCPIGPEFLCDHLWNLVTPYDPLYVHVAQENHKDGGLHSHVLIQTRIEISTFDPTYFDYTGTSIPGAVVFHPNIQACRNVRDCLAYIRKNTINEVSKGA
Experimental: as §1

[7] = tested on: T7, Rep nickase domain of porcine circovirus 2
T7 sequence (Rep 2-116, printed without the tag): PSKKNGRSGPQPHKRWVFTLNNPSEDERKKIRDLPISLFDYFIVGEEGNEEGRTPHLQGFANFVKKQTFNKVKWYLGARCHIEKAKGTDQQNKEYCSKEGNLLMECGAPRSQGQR
Experimental: as §1

[8] = tested on: T8, Rep nickase domain of tomato golden mosaic virus
T8 sequence (Rep 1-124, printed without the tag): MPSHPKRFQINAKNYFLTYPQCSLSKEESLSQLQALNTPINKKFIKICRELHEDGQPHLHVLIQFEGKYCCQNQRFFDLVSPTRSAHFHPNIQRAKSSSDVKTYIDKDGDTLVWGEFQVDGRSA
Experimental: as §1

[9] = tested on: T9, Rep nickase domain of tomato yellow leaf curl virus
T9 sequence (Rep 1-136, printed without the tag): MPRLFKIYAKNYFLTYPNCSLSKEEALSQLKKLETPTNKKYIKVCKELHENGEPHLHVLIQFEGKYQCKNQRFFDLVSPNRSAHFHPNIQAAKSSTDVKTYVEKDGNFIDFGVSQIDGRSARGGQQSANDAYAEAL
Experimental: as §1

[10] = tested on: T10, Rep nickase domain of wheat dwarf virus
T10 sequence (Rep 1-137, printed without the tag): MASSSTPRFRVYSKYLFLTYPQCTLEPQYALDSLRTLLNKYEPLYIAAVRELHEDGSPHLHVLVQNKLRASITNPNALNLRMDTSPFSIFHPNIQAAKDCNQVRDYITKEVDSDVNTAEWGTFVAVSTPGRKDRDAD
Experimental: as §1

Row | Sequence | uncleaved DNA left (log2) [1] | uncleaved DNA left (log2) [2] | uncleaved DNA left (log2) [3] | uncleaved DNA left (log2) [4] | uncleaved DNA left (log2) [5] | uncleaved DNA left (log2) [6] | uncleaved DNA left (log2) [7] | uncleaved DNA left (log2) [8] | uncleaved DNA left (log2) [9] | uncleaved DNA left (log2) [10]
1 | CGGGACT | -0.0253 | 0.154 | 0.856 | 1.99 | 0.000183 | 2.33 | 0.209 | 0.0632 | -0.0173 | 0.0646
2 | CCATAAG | 0.0103 | 0.0656 | -0.105 | 1.25 | 0.213 | 0.562 | 0.258 | 0.0145 | 0.276 | 0.052
3 | AGCTGAA | -0.041 | -0.116 | 0.232 | 1.47 | -0.0456 | 1.25 | -0.0525 | -0.0444 | -0.0719 | 0.0141
4 | GTCTAGT | -0.144 | 0.0857 | 0.195 | 0.698 | 4.11e-05 | 1.66 | -0.656 | 0.173 | 0.147 | 0.0616
5 | GTACGTG | 0.057 | -0.104 | -0.125 | -0.0546 | -0.0459 | -0.298 | 0.0128 | 0.0411 | 0.00838 | -0.0966
6 | ACAATGC | 0.0202 | 0.133 | -0.57 | -0.237 | 0.0759 | -1.1 | 0.179 | 0.0255 | 0.101 | -0.0819
7 | TTCTATA | -0.0519 | -0.0637 | 0.157 | -1.52 | 0.0107 | 0.0776 | -0.225 | -0.0951 | 0.178 | -0.021
8 | GTCGTGT | -0.00957 | -0.133 | 0.227 | 0.543 | -0.0781 | 1.39 | -0.00646 | 0.000296 | -0.0551 | -0.0959
9 | GAGAGAC | 0.00879 | 0.0373 | 0.477 | 1.43 | -0.000722 | 1.84 | 0.189 | 0.0879 | 0.0532 | 0.143
10 | CTAATTA | -0.0359 | 0.0663 | -0.00304 | -1.29 | -0.000125 | -0.682 | -0.154 | 0.00794 | 0.0193 | 0.152
11 | TACACCG | -0.087 | -0.184 | -0.886 | -0.699 | -0.0392 | -1.07 | -0.00193 | -0.19 | -0.181 | -0.134
12 | AAGTCTG | 0.0863 | 0.0501 | 0.342 | 1.44 | 0.0603 | 1.72 | 0.0372 | -0.0601 | -0.0617 | 0.0185
13 | CTAAGAG | 0.126 | 0.158 | -0.478 | -0.53 | 0.0825 | -1.05 | 0.147 | 0.0937 | 0.129 | 0.0132
14 | TACATTG | -0.00673 | -0.106 | -0.569 | -0.877 | 0.105 | -1.26 | 0.148 | -0.0417 | -0.143 | 0.0147
15 | AAGATAG | 0.083 | 0.0278 | -0.507 | -0.513 | 0.11 | -1.05 | 0.297 | 0.0652 | 0.0646 | 0.00105
